We go through 98 molecules from PubChem BioAssay AID485344 (National Center for Advancing Translational Sciences (NCATS), 2010).

The campaign covered roughly 340,000 compounds. About 6,900 (2%) were called active. No stated cut-off is given here; in the data, active means inhibition above about 30%; inactive means below that, where a call was filed. The entries are a selection whose mix differs from that of the whole data set. Where no call is shown, the source filed none.

As a reminder, the inhibition is the drop in the measured response relative to a control, in per cent.

The assay has as its target D(2) dopamine receptor (Homo sapiens) (UniProt P14416). Briefly: HTS Assay for Allosteric Antagonists of the Human D2 Dopamine Receptor: Primary Screen for Antagonists. Further: 0% is about no effect. The note with it: HEK293 TREx D2 cells, calcium flux, dopamine EC80; at 10 µM; stronger effect = higher value. The method in brief: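 Inhibition of EC80 dopamine-driven calcium flux, recorded kinetically, defines activity here; cells are a tetracycline-induced HEK293 T-REx line expressing force-coupled D2.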
Chain of UniProt P14416 (P14416 whole entry, looked up): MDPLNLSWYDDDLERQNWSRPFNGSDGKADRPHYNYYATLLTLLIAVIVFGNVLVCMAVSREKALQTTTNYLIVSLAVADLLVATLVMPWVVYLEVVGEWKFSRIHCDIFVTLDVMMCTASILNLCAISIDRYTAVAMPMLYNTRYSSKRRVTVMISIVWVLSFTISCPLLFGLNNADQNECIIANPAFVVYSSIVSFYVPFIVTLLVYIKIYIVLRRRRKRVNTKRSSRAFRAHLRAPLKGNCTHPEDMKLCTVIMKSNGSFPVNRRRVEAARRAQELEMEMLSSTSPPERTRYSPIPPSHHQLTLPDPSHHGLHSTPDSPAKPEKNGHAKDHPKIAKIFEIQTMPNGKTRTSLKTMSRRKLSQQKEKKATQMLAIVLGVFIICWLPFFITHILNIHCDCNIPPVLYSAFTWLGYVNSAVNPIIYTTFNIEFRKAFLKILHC
Background: Calcium flux is commonly read through the fluorescence of an indicator in the cells.
As for `Cc1ccccc1NC(=O)Cn1c(=O)n(Cc2ccccc2)c(=O)c2c(C)c(C)sc21`, the inhibition stood at 2.49%.

Regarding `N#CC1=C2SCN(C3CCCCC3)CN2C(=O)CC1c1ccc(Cl)cc1` (stereo not drawn), the inhibition is 12.3%.

As for `O=C(NCc1ccccc1F)c1ccc(CSc2nc3cccnc3n2Cc2ccccc2)cc1`, the inhibition is -8.89%.

On to `Cc1nn2c(=O)cc(COC(=O)c3ccccc3NC(=O)COc3ccccc3C)nc2s1`, for which the inhibition is -17.7%.

Regarding `CN1C(=O)C(N=Nc2ccccc2C(=O)O)N(C)C1=S` (stereo not drawn), the inhibition was active: 40.1%.

Consider `COc1cc(/C=C/C(=O)OCC(=O)NC(=O)NC(C)C)ccc1OCC#N`, for which the inhibition was active: 46.3%.

Take `Cc1ccc(SCc2nc(-c3ccc(C(=O)NCCc4ccc(Cl)cc4)cc3)oc2C)cc1`: the inhibition came out at 10.7%.

On to `CCOC(=O)c1cc(OC(=O)c2ccccc2Cl)n(-c2ccccc2)n1`, for which the inhibition was 9.25%.

Take `CCC(=O)N1c2ccc(S(=O)(=O)N3CCN(CC)CC3)cc2CC1C` (stereo not drawn): the inhibition was active: 38.6%.

As to `COc1ccc(OC)c(NC(=O)[C@H](CSCc2ccccc2)N2Cc3ccccc3C2=O)c1`, the inhibition is -25.9%.

With `COC(=O)c1cc2sc(Cl)cc2n1CC(=O)Nc1cc(C)cc(C)c1`, the inhibition was -15.4%.

`COc1ccc(OC)c(CNc2nc3ccc(C)cc3n3nnnc23)c1`: the inhibition was -0.21%.

Take `COc1cc(Cl)c(C)cc1NC(=O)CC1SC(N2CCOCC2)=NC1=O` (stereo not drawn): the inhibition is active: 99.2%.

`Cn1cc(S(=O)(=O)N2CCN(c3ccccc3F)CC2)c(=O)n(C)c1=O`: the inhibition was active: 31.6%.

As for `CNC(=S)N/N=C/c1ccccc1OCC(=O)O`, the inhibition was active: 31.4%.

In the case of `CC1CCN(c2nc3ccc(C(=O)N4CCN(c5ccccc5)CC4)cc3s2)CC1`, the inhibition was -8.19%.

Turning to `CCOc1ccc(N(CC)C(=O)c2cc3c(s2)-c2ccccc2OC3)cc1`, the inhibition turned out to be 5.98%.

As to `CCC(=O)N1CCc2cc(CNC(=O)c3ccc(F)cc3)ccc21`, the inhibition came to 10.8%.

As for `COc1cccc(N2CCN(C(=O)c3nn(C)c4c3CSc3ccc(C)cc3-4)CC2)c1`, the inhibition is -8.85%.

Regarding `N=C1C(c2nc3ccccc3s2)=C(O)CN1NC(=O)c1ccc([N+](=O)[O-])cc1`, the inhibition was active: 42.3%.

With `c1ccc(N2CCN(Cc3cn4cccnc4n3)CC2)cc1`, the inhibition was active: 48.5%.

With `COc1cc(C2C(=O)N(C3CCCCC3)CC(=O)N2C2CCCCC2)ccc1OC(C)C` (stereo not drawn), the inhibition was found to be 13.2%.

In the case of `CCSc1nc(-c2ccccc2F)nc2c1Cc1c(CO)cnc(C)c1O2`, the inhibition is -2.52%.

As for `COc1ccc(CCNC(=O)C(C)n2c(=O)cc(-c3ccccc3)c3c(C)nn(C)c32)cc1OC` (stereo not drawn), the inhibition was 1.13%.

With `Cc1cc(N2CCCCC2)nc2ccc(NC(=O)CCC(=O)N3CCN(c4ccccc4)CC3)cc12`, the inhibition was -15.9%.

For `O=C(CSCc1ccc(F)cc1)N1CCc2c([nH]c3ccccc23)C1c1ccc(Cl)cc1` (stereo not drawn), the inhibition was found to be 7.91%.

For `COc1cc(C(=O)Nc2ccccc2-c2nc(-c3ccc(C)cc3)no2)cc(OC)c1OC`, the inhibition worked out at 11.3%.

Take `COc1ccc(NC(=O)CN2C(=O)c3cccnc3Sc3ccccc32)cc1OC`: the inhibition was 10.1%.

`COc1cc(NC(=O)COC(=O)Cc2ccsc2)cc(OC)c1`: the inhibition is active: 30.5%.

With `Cc1cccc(N2CCN(C(=O)c3ccc(Nc4nc5ccccc5n5nnnc45)cc3)CC2)c1C`, the inhibition was -2.91%.

With `CC1=C(C(=O)Nc2cc(Cl)ccc2C)C(c2cccs2)n2ncnc2N1` (stereo not drawn), the inhibition was -21.7%.

On to `COc1ccccc1OCCC(=O)OCC(=O)Nc1ccc(Br)cc1`, for which the inhibition is active: 90.7%.

For the molecule `CCC(C(=O)Nc1cc(F)ccc1F)n1nc(C)c2c(C)n(-c3ccc(C)cc3)nc2c1=O` (stereo not drawn), the inhibition is -4.27%.

Regarding `CCc1ccccc1NC(=O)c1noc2c1CC(C(C)(C)C)CC2` (stereo not drawn), the inhibition was determined as 2.01%.

On to `Cc1cccc(NC(=O)C(=O)NCCc2csc(-c3ccc(F)cc3)n2)c1C`, for which the inhibition was found to be 4.24%.

Consider `Cc1cc(C)c2c(=O)cc(CSc3n[nH]c(C)n3)[nH]c2c1`, for which the inhibition amounted to 9.88%.

Regarding `COc1ccc(CCC(=O)NC2CC(=O)N(c3ccc(OC)cc3)C2)cc1` (stereo not drawn), the inhibition was determined as 8.44%.

For `Cc1cccc(OCC(=O)Nc2nnc(S(=O)(=O)N3CCc4ccccc43)s2)c1`, the inhibition stood at 15.8%.

Turning to `O=C(Nc1ccc(Cl)cc1)C(NS(=O)(=O)c1cccs1)c1ccccc1` (stereo not drawn), the inhibition came out at 15.2%.

In the case of `COCc1nnc(NC(C)=O)s1`, the inhibition was active: 32.4%.

Take `CCOC(=O)C1CCCN(Cc2cn3c(-c4cccc(Br)c4)nnc3s2)C1` (stereo not drawn): the inhibition was found to be 8.09%.

With `Cc1nc(-c2ccc(C)c(N3CCN(C(=O)Nc4cccc(Cl)c4C)CC3)c2)no1`, the inhibition was found to be 8.64%.

As for `Cc1ccc(-n2c(Cc3ccccc3)nnc2SCc2nc(-c3cccs3)no2)cc1C`, the inhibition is -5.21%.

Regarding `COc1cccc(N2CCN(Cc3ncc(-c4ccccc4)o3)CC2)c1`, the inhibition is active: 48.1%.

Consider `COc1ccc(OC)c(NC(=O)Cn2c(=O)cc(-c3ccccc3)c3c(C)nn(C)c32)c1`, for which the inhibition was -5.15%.

Regarding `COc1cc(NC(=O)CCCOc2cc(=O)n(C)c3ccccc23)cc(OC)c1OC`, the inhibition is -3.41%.

For `CCOC(=O)CNC(=O)N1CCN(c2nnc(C)c3c(C)n(-c4ccc(Cl)cc4)nc23)CC1`, the inhibition was 5.05%.

For the molecule `Cc1cccc(N2CCN(C(=O)CS(=O)(=O)Cc3nc(-c4ccccc4C)oc3C)CC2C)c1` (stereo not drawn), the inhibition was -14.8%.

As for `CCOc1ccc(N(Cc2ccccc2)C(=O)c2nc(S(C)(=O)=O)ncc2Cl)cc1`, the inhibition was -6.36%.

For `CCc1ccc(S(=O)(=O)c2nnn3c2nc(Nc2ccc(NC(C)=O)cc2)c2sccc23)cc1`, the inhibition turned out to be 3.19%.

For the molecule `CC(=O)c1c(C)oc2c1cc(NS(=O)(=O)c1ccc(Cl)c(C)c1)c1ccccc12`, the inhibition is 4.82%.

On to `O=S(=O)(NCc1nc2cccnc2n1Cc1ccccc1Cl)c1ccc(F)c(Cl)c1`, for which the inhibition was -9.23%.

For the molecule `CC1CCN(c2nc3ccc(C(=O)NCc4ccccc4)cc3s2)CC1`, the inhibition is -0.279%.

For `COc1ccc(Cn2c(SCc3ccc(C(=O)NC(C)c4ccccc4)cc3)nc3cccnc32)cc1` (stereo not drawn), the inhibition was -11.6%.

Regarding `COc1cc(NC(C)=O)c2ncccc2c1NC(C)=O`, the inhibition was active: 36.7%.

Turning to `Cc1nnc(NC(=O)c2ccccc2)s1`, the inhibition came to 6.22%.

For the molecule `COc1ccc(CNC(=O)c2ccc3nc(-c4ccc(F)cc4)c(-c4ccc(F)cc4)nc3c2)cc1`, the inhibition turned out to be 16.5%.

Take `Cc1cc(NC(=O)CCNS(=O)(=O)c2cccc3nsnc23)ccc1Br`: the inhibition is -4.39%.

Consider `Cc1ccc(NC(=O)c2ccccc2Br)c(C(=O)c2ccccc2)c1`, for which the inhibition was found to be 5.77%.

Take `Cc1cccc(-n2nc(C)c(C(=O)Nc3cc(C)ccc3C)c2-n2cccc2)c1`: the inhibition is -5.06%.

Regarding `Cc1ccc(C(=O)Nc2cc(Cl)ccc2N2CCCCC2)s1`, the inhibition is active: 32.2%.

Turning to `Cc1ccc(-n2c(SCc3ccccc3)nc3c([nH]c4ccccc43)c2=O)cc1`, the inhibition is -2.16%.

As for `COc1ccc(NC(=O)CC2NCCNC2=O)c(OC)c1` (stereo not drawn), the inhibition was 19.7%.

For the molecule `Cc1c(CC(=O)NCc2ccc(F)cc2)c(=O)oc2cc(O)c(Cl)cc12`, the inhibition is -14.2%.

Consider `CCOC(=O)c1c(NC(=O)C2c3ccccc3Oc3ccccc32)sc(C)c1C`, for which the inhibition was found to be 6.5%.

For the molecule `O=C(NCc1ccccc1Cl)c1ccc2oc(=O)n(Cc3ccccc3)c2c1`, the inhibition was -0.565%.

`Cc1cc(C)n(-c2nc3ccccc3nc2N2CCN(c3cccc(C(F)(F)F)c3)CC2)n1`: the inhibition is -6.56%.

As to `COc1cccc(CNC(=O)c2cc(S(=O)(=O)N3CCCCC3)c[nH]2)c1`, the inhibition is 5.42%.

Turning to `Cc1csc2nc(COC(=O)c3ccccc3NC(=O)c3ccc(C(C)(C)C)cc3)cc(=O)n12`, the inhibition is 3.11%.

Take `COc1ccc(-c2cc(C(F)(F)F)nc(NCCc3ccccc3)n2)cc1OC`: the inhibition is -4.17%.

Consider `COc1ccc2oc(=O)c(C(=O)N3CCN(c4ccc(C)cc4)CC3)cc2c1`, for which the inhibition is -4.28%.

For `CCN(CC(=O)Nc1cc(Cl)ccc1C)C(=O)Cc1sc(C)nc1-c1ccc(F)cc1`, the inhibition was active: 75.5%.

In the case of `O=C(CCCn1c(=O)c2cccn2c2ccccc21)NCCc1ccc(Cl)cc1`, the inhibition amounted to 0.713%.

For `COc1ccc(-c2cc(C(=O)Nc3c(C)n(C)n(-c4ccccc4)c3=O)no2)cc1OC`, the inhibition is -0.772%.

In the case of `CSc1nn(Cc2ccc(C)cc2)c(N)c1S(=O)(=O)c1ccccc1`, the inhibition is -6.35%.

`COC(=O)c1cc(-c2ccc(C)cc2)c2c(=O)n(C)c(=O)n(C)c2n1`: the inhibition worked out at 5.82%.

On to `OCCN(CCO)c1ncnc2c1cnn2-c1ccc(F)cc1`, for which the inhibition came out at 13.9%.

With `COc1ccccc1C(=O)Oc1ccc(C(c2c(C)[nH][nH]c2=O)c2c(C)[nH][nH]c2=O)cc1`, the inhibition is 23.8%.

`Cc1ccc(CNC(=O)c2ccc(NC(=O)N3CCSc4ncccc43)cc2)cc1`: the inhibition amounted to 5.02%.

As to `CCc1ccc(-n2c(=O)c3c4c(sc3n(CC(=O)N3CCCCC3CC)c2=O)CCC4)cc1` (stereo not drawn), the inhibition is 19.9%.

`O=C(CN1C(=O)c2cccnc2Oc2ccc(Cl)cc21)NC1CCCCCC1`: the inhibition is active: 41.1%.

With `Cc1cccc(C)c1OCCCn1c(CCNC(=O)C2CCCCC2)nc2ccccc21`, the inhibition was -1.07%.

In the case of `Cc1ccc(NC(=O)Cn2c(=O)n(Cc3nc(C)no3)c(=O)c3ccccc32)c(Cl)c1`, the inhibition is 7.18%.

In the case of `CCC(=O)Nc1ccc(NC(=O)c2ccccc2)nc1`, the inhibition was active: 31.7%.

With `CCOc1ccccc1NC(=O)c1nc(SC(C)C)ncc1Cl`, the inhibition came out at 8.76%.

Consider `Cc1c(CNC2CCCCC2)c(C(=O)O)c(C)n1Cc1cccc(Cl)c1`, for which the inhibition was -20%.

As for `Cc1c(CCC(=O)NCCc2ccc(Cl)cc2)c(=O)oc2c(C)c(O)ccc12`, the inhibition is -9.23%.

In the case of `CCCCN1C2CCCC1CC(NC(=O)c1cccc(Cl)c1)C2` (stereo not drawn), the inhibition was active: 30.8%.

With `COc1cccc(C(=O)c2c(N)c(-c3nc(-c4ccccc4)cs3)c3ccccn23)c1`, the inhibition amounted to 8.51%.

Take `CCO[C@H]1OC(C(=O)O)=C[C@@H](c2csc3ccccc23)[C@@H]1CCCO`: the inhibition is active: 31.6%.

`O=C(CN1C(=O)COc2ccccc21)NCCc1ccc(Cl)cc1`: the inhibition is -3.35%.

For `CCOc1ccc(N(CC)S(=O)(=O)N2CCCC(C(=O)Nc3ccc(C(C)=O)cc3)C2)cc1` (stereo not drawn), the inhibition is -9.68%.

As for `COc1ccc(N2CCN(CCCNC(=O)c3cc(Nc4ccc(OC)cc4OC)nc4ccccc34)CC2)cc1`, the inhibition was -23.6%.

For `COC(=O)C1=C(C)N(c2ccc(Cl)c(Cl)c2)C(=O)C1`, the inhibition is active: 32.1%.

For `O=C(CCS(=O)(=O)c1ccccc1)N(Cc1cccnc1)c1nc2ccc(Cl)cc2s1`, the inhibition stood at 6.28%.

On to `COc1ccc(-c2noc(N3CCC(C(=O)NCc4ccccc4Cl)CC3)n2)cc1`, for which the inhibition was active: 47.6%.

Take `CCCN1Cc2cccc(C(=O)Nc3ccc(C(C)=O)cc3)c2C1=O`: the inhibition was -12.8%.

For `OCCN1CCN(CCOc2cccc(Cl)c2)CC1`, the inhibition was active: 76%.
